{"source": "the supplement of paper PMC8728848", "binders": {"B1": {"name": "CLEC5A (Homo sapiens), Q9NY25 (protein)", "chain": "MNWHMIISGLIVVVLKVVGMTLFLLYFPQIFNKSNDGFTTTRSYGTVSQIFGSSSPSPNGFITTRSYGTVCPKDWEFYQARCFFLSTSESSWNESRDFCKGKGSTLAIVNTPEKLKFLQDITDAEKYFIGLIYHREEKRWRWINNSVFNGNVTNQNQNFNCATIGLTKTFDAASCDISYRRICEKNAK"}}, "test_in_all_cases": "glycan array binding signal (z-score within array); higher = stronger binding", "settings_in_all_cases": "glycan notation: IUPAC condensed, linker removed", "key": {"[1]": {"target": "Gal(b1-3)GalNAc(b1-3)Gal(a1-4)Gal(b1-4)Glc", "outline": "(§1)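 The Consortium for Functional Glycomics database supplied 3228 glycan arrays, of which those lacking an available protein sequence were dropped. The binding signal, a within-array Z-score, was averaged across arrays of the same protein sequence and across linkers. Negative scores can be read as non-binding.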"}, "[2]": {"target": "Gal(b1-3)GalNAc(b1-4)Gal(b1-4)Glc", "outline": "as §1"}, "[3]": {"target": "Gal(b1-3)GalNAc(b1-4)Gal3S(b1-4)Glc", "outline": "as §1"}, "[4]": {"target": "Gal(b1-3)GalNAc(b1-4)[Neu5Ac(a2-3)]Gal(b1-4)Glc", "outline": "as §1"}, "[5]": {"target": "Gal(b1-3)GalNAc(b1-4)[Neu5Gc(a2-3)]Gal(b1-4)Glc", "outline": "as §1"}, "Gal(b1-3)GlcNAc": {"target": "Gal(b1-3)GlcNAc", "outline": "as §1"}, "[6]": {"target": "Gal(b1-3)GlcNAc(a1-3)Gal(b1-4)GlcNAc", "outline": "as §1"}, "[7]": {"target": "Gal(b1-3)GlcNAc(a1-6)Gal(b1-4)GlcNAc", "outline": "as §1"}, "Gal(b1-3)GlcNAc(b1-2)Man": {"target": "Gal(b1-3)GlcNAc(b1-2)Man", "outline": "as §1"}, "[8]": {"target": "Gal(b1-3)GlcNAc(b1-2)Man(a1-3)[Gal(b1-3)GlcNAc(b1-2)Man(a1-6)]Man(b1-4)GlcNAc(b1-4)GlcNAc", "outline": "as §1"}, "[9]": {"target": "Gal(b1-3)GlcNAc(b1-2)Man(a1-3)[Gal(b1-3)GlcNAc(b1-2)Man(a1-6)]Man(b1-4)GlcNAc(b1-4)[Fuc(a1-6)]GlcNAc", "outline": "as §1"}, "[10]": {"target": "Gal(b1-3)GlcNAc(b1-2)Man(a1-3)[GlcNAc(b1-4)][Gal(b1-3)GlcNAc(b1-2)Man(a1-6)]Man(b1-4)GlcNAc(b1-4)GlcNAc", "outline": "as §1"}, "[11]": {"target": "Gal(b1-3)GlcNAc(b1-2)[Gal(b1-3)GlcNAc(b1-6)]Man(a1-6)[Gal(b1-3)GlcNAc(b1-2)Man(a1-3)]Man(b1-4)GlcNAc(b1-4)GlcNAc", "outline": "as §1"}, "[12]": {"target": "Gal(b1-3)GlcNAc(b1-3)Gal(b1-3)GlcNAc", "outline": "as §1"}, "[13]": {"target": "Gal(b1-3)GlcNAc(b1-3)Gal(b1-4)Glc", "outline": "as §1"}, "[14]": {"target": "Gal(b1-3)GlcNAc(b1-3)Gal(b1-4)GlcNAc", "outline": "as §1"}, "[15]": {"target": "Gal(b1-3)GlcNAc(b1-3)Gal(b1-4)GlcNAc(b1-2)Man(a1-3)[Gal(b1-3)GlcNAc(b1-3)Gal(b1-4)GlcNAc(b1-2)Man(a1-6)]Man(b1-4)GlcNAc(b1-4)GlcNAc", "outline": "as §1"}, "[16]": {"target": "Gal(b1-3)GlcNAc(b1-3)Gal(b1-4)GlcNAc(b1-2)[Gal(b1-3)GlcNAc(b1-3)Gal(b1-4)GlcNAc(b1-6)]Man(a1-6)[Gal(b1-3)GlcNAc(b1-3)Gal(b1-4)GlcNAc(b1-2)Man(a1-3)]Man(b1-4)GlcNAc(b1-4)[Fuc(a1-6)]GlcNAc", "outline": "as §1"}, "[17]": {"target": "Gal(b1-3)GlcNAc(b1-3)Gal(b1-4)GlcNAc(b1-3)Gal(b1-4)Glc", "outline": "as §1"}, "[18]": {"target": "Gal(b1-3)GlcNAc(b1-3)Gal(b1-4)GlcNAc(b1-3)Gal(b1-4)GlcNAc(b1-2)[Gal(b1-3)GlcNAc(b1-3)Gal(b1-4)GlcNAc(b1-3)Gal(b1-4)GlcNAc(b1-6)]Man(a1-6)[Gal(b1-3)GlcNAc(b1-3)Gal(b1-4)GlcNAc(b1-3)Gal(b1-4)GlcNAc(b1-2)Man(a1-3)]Man(b1-4)GlcNAc(b1-4)[Fuc(a1-6)]GlcNAc", "outline": "as §1"}, "[19]": {"target": "Gal(b1-3)GlcNAc(b1-3)Gal(b1-4)GlcNAc(b1-6)[Gal(b1-3)GlcNAc(b1-3)]Gal(b1-4)Glc", "outline": "as §1"}, "[20]": {"target": "Gal(b1-3)GlcNAc(b1-3)Gal(b1-4)[Fuc(a1-3)]GlcNAc", "outline": "as §1"}, "[21]": {"target": "Gal(b1-3)GlcNAc(b1-3)Gal(b1-4)[Fuc(a1-3)]GlcNAc(b1-3)Gal(b1-4)Glc", "outline": "as §1"}, "[22]": {"target": "Gal(b1-3)GlcNAc(b1-3)Gal(b1-4)[Fuc(a1-3)]GlcNAc(b1-6)[Gal(b1-3)GlcNAc(b1-3)]Gal(b1-4)Glc", "outline": "as §1"}, "[23]": {"target": "Gal(b1-3)GlcNAc(b1-3)GalNAc", "outline": "as §1"}, "[24]": {"target": "Gal(b1-3)GlcNAc(b1-3)[Fuc(a1-3)[Gal(b1-4)]GlcNAc(b1-6)]Gal(b1-4)]GlcNAc(b1-6)[Gal(b1-4)]GlcNAc(b1-3)]Gal(b1-4)Glc", "outline": "as §1"}, "[25]": {"target": "Gal(b1-3)GlcNAc(b1-3)[Gal(b1-4)GlcNAc(b1-6)]Gal(b1-4)Glc", "outline": "as §1"}, "[26]": {"target": "Gal(b1-3)GlcNAc(b1-3)[Gal(b1-4)GlcNAc(b1-6)]Gal(b1-4)GlcNAc(b1-6)[Gal(b1-3)GlcNAc(b1-3)]Gal(b1-4)Glc", "outline": "as §1"}, "[27]": {"target": "Gal(b1-3)GlcNAc(b1-6)Gal(b1-4)GlcNAc", "outline": "as §1"}, "[28]": {"target": "Gal(b1-3)GlcNAc(b1-6)GalNAc", "outline": "as §1"}, "[29]": {"target": "Gal(b1-3)GlcNAc(b1-6)[Gal(b1-3)]GalNAc", "outline": "as §1"}, "Gal(b1-3)GlcNAc6S": {"target": "Gal(b1-3)GlcNAc6S", "outline": "as §1"}, "[30]": {"target": "Gal(b1-3)[Fuc(a1-4)]GlcNAc", "outline": "as §1"}, "[31]": {"target": "Gal(b1-3)[Fuc(a1-4)]GlcNAc(b1-2)Man", "outline": "as §1"}, "[32]": {"target": "Gal(b1-3)[Fuc(a1-4)]GlcNAc(b1-2)Man(a1-3)[Gal(b1-3)[Fuc(a1-4)]GlcNAc(b1-2)Man(a1-6)]Man(b1-4)GlcNAc(b1-4)GlcNAc", "outline": "as §1"}, "[33]": {"target": "Gal(b1-3)[Fuc(a1-4)]GlcNAc(b1-2)Man(a1-3)[Gal(b1-3)[Fuc(a1-4)]GlcNAc(b1-2)Man(a1-6)]Man(b1-4)GlcNAc(b1-4)[Fuc(a1-6)]GlcNAc", "outline": "as §1"}, "[34]": {"target": "Gal(b1-3)[Fuc(a1-4)]GlcNAc(b1-3)Gal(b1-3)[Fuc(a1-4)]GlcNAc", "outline": "as §1"}, "[35]": {"target": "Gal(b1-3)[Fuc(a1-4)]GlcNAc(b1-3)Gal(b1-4)Glc", "outline": "as §1"}, "[36]": {"target": "Gal(b1-3)[Fuc(a1-4)]GlcNAc(b1-3)Gal(b1-4)GlcNAc", "outline": "as §1"}, "[37]": {"target": "Gal(b1-3)[Fuc(a1-4)]GlcNAc(b1-3)Gal(b1-4)[Fuc(a1-3)]Glc", "outline": "as §1"}, "[38]": {"target": "Gal(b1-3)[Fuc(a1-4)]GlcNAc(b1-3)Gal(b1-4)[Fuc(a1-3)]GlcNAc", "outline": "as §1"}, "[39]": {"target": "Gal(b1-3)[Fuc(a1-4)]GlcNAc(b1-3)Gal(b1-4)[Fuc(a1-3)]GlcNAc(b1-3)Gal(b1-4)Glc", "outline": "as §1"}, "[40]": {"target": "Gal(b1-3)[Fuc(a1-4)]GlcNAc(b1-3)Gal(b1-4)[Fuc(a1-3)]GlcNAc(b1-6)[Gal(b1-3)[Fuc(a1-4)]GlcNAc(b1-3)]Gal(b1-4)Glc", "outline": "as §1"}, "[41]": {"target": "Gal(b1-3)[Fuc(a1-4)]GlcNAc(b1-3)[Fuc(a1-3)[Gal(b1-4)]GlcNAc(b1-6)]Gal(b1-4)Glc", "outline": "as §1"}, "[42]": {"target": "Gal(b1-3)[Fuc(a1-4)]GlcNAc(b1-6)GalNAc", "outline": "as §1"}}, "note": "The other results are listed elsewhere or left out."}
{"binder": "B1", "values": [{"measurement": "glycan array binding signal (z-score)", "setting": "[1]", "result": -0.562}, {"measurement": "glycan array binding signal (z-score)", "setting": "[2]", "result": -0.149}, {"measurement": "glycan array binding signal (z-score)", "setting": "[3]", "result": -0.32}, {"measurement": "glycan array binding signal (z-score)", "setting": "[4]", "result": -0.23}, {"measurement": "glycan array binding signal (z-score)", "setting": "[5]", "result": -0.031}, {"measurement": "glycan array binding signal (z-score)", "setting": "Gal(b1-3)GlcNAc", "result": -0.169}, {"measurement": "glycan array binding signal (z-score)", "setting": "[6]", "result": -0.184}, {"measurement": "glycan array binding signal (z-score)", "setting": "[7]", "result": -0.327}, {"measurement": "glycan array binding signal (z-score)", "setting": "Gal(b1-3)GlcNAc(b1-2)Man", "result": -0.045}, {"measurement": "glycan array binding signal (z-score)", "setting": "[8]", "result": -0.204}, {"measurement": "glycan array binding signal (z-score)", "setting": "[9]", "result": 0.056}, {"measurement": "glycan array binding signal (z-score)", "setting": "[10]", "result": 0.22}, {"measurement": "glycan array binding signal (z-score)", "setting": "[11]", "result": 0.051}, {"measurement": "glycan array binding signal (z-score)", "setting": "[12]", "result": -0.038}, {"measurement": "glycan array binding signal (z-score)", "setting": "[13]", "result": -0.282}, {"measurement": "glycan array binding signal (z-score)", "setting": "[14]", "result": -0.278}, {"measurement": "glycan array binding signal (z-score)", "setting": "[15]", "result": 0.297}, {"measurement": "glycan array binding signal (z-score)", "setting": "[16]", "result": -0.042}, {"measurement": "glycan array binding signal (z-score)", "setting": "[17]", "result": 0.258}, {"measurement": "glycan array binding signal (z-score)", "setting": "[18]", "result": 0.061}, {"measurement": "glycan array binding signal (z-score)", "setting": "[19]", "result": -0.121}, {"measurement": "glycan array binding signal (z-score)", "setting": "[20]", "result": -0.082}, {"measurement": "glycan array binding signal (z-score)", "setting": "[21]", "result": -0.32}, {"measurement": "glycan array binding signal (z-score)", "setting": "[22]", "result": -0.154}, {"measurement": "glycan array binding signal (z-score)", "setting": "[23]", "result": -0.222}, {"measurement": "glycan array binding signal (z-score)", "setting": "[24]", "result": -0.32}, {"measurement": "glycan array binding signal (z-score)", "setting": "[25]", "result": -0.32}, {"measurement": "glycan array binding signal (z-score)", "setting": "[26]", "result": -0.32}, {"measurement": "glycan array binding signal (z-score)", "setting": "[27]", "result": -0.153}, {"measurement": "glycan array binding signal (z-score)", "setting": "[28]", "result": -0.196}, {"measurement": "glycan array binding signal (z-score)", "setting": "[29]", "result": 0.136}, {"measurement": "glycan array binding signal (z-score)", "setting": "Gal(b1-3)GlcNAc6S", "result": -0.17}, {"measurement": "glycan array binding signal (z-score)", "setting": "[30]", "result": -0.068}, {"measurement": "glycan array binding signal (z-score)", "setting": "[31]", "result": -0.063}, {"measurement": "glycan array binding signal (z-score)", "setting": "[32]", "result": 1.69}, {"measurement": "glycan array binding signal (z-score)", "setting": "[33]", "result": 0.15}, {"measurement": "glycan array binding signal (z-score)", "setting": "[34]", "result": -0.207}, {"measurement": "glycan array binding signal (z-score)", "setting": "[35]", "result": 0.451}, {"measurement": "glycan array binding signal (z-score)", "setting": "[36]", "result": -0.073}, {"measurement": "glycan array binding signal (z-score)", "setting": "[37]", "result": -0.32}, {"measurement": "glycan array binding signal (z-score)", "setting": "[38]", "result": -0.037}, {"measurement": "glycan array binding signal (z-score)", "setting": "[39]", "result": 0.933}, {"measurement": "glycan array binding signal (z-score)", "setting": "[40]", "result": -0.32}, {"measurement": "glycan array binding signal (z-score)", "setting": "[41]", "result": -0.32}, {"measurement": "glycan array binding signal (z-score)", "setting": "[42]", "result": -0.043}]}
